The results in this text go back to ChEMBL document CHEMBL4888484, “Replenishing the malaria drug discovery pipeline: Screening and hit evaluation of the MMV Hit Generation Library 1 (HGL1) against asexual blood stage Plasmodium falciparum ,using a nano luciferase reporter read-out” (2022).

The campaign covered roughly 150,000 compounds. About 540 (0.36%) showed an effect of 50% or more. This is one part of the list.

In general, % Inhibition refers to the drop in the measured response relative to a control, in per cent.

The test system of the assay is Plasmodium falciparum. Description: Primary screen in NF54 nanoGlo assay, in single point, at 2uM, 72h; a lower Z score goes with more inhibition. The assay is classed as functional, Erythrocyte. The following applies: timepoint 72 hour.
`Cc1nc(C(=O)NCCc2c[nH]c3ccccc23)c(-c2ccc(F)cc2)s1`: the “% Inhibition” value is -3% and the Z score came out at 0.42.
The corresponding values for `CCCc1ccc(OCCNC(=O)C2CCCC2)cc1` are 36% and -4.61.
The corresponding values for `CC(=O)Nc1nc(C(=O)N[C@H](c2ccncc2)C2CC2)cs1` are 0% and -0.08.
The corresponding values for `CC(C)CNC(=O)c1ccc(Cl)c(N2C(=O)CCS2(=O)=O)c1` are -13% and 1.41.
For the molecule `Cn1cc(CC(=O)NCc2cccnc2)c2cccnc21`, the “% Inhibition” value is on record as -11% and the Z score amounted to 1.23.
`O=C(NC[C@H]1CCS(=O)(=O)C1)c1ccccn1`: the “% Inhibition” value is reported as -3% and the Z score came out at 0.57.
On to `CC(=O)c1cccc(NC(=O)N(Cc2ccccc2)C2CCCCC2)c1`, for which the “% Inhibition” value is 3% and the Z score was -0.38.
On the same counts, the results for `CCOC(=O)[C@@](C)(NC(=O)c1scnc1C)C(C)C` are 8% and -1.12.
The corresponding values for `CCc1noc(C2CCC(NC[C@H](O)c3ccco3)CC2)n1` (stereo partly specified) are -9% and 1.16.
Turning to `CCC(O)(CC)CNC(=O)C1(CC)COC1`, the “% Inhibition” value is listed as -6% and the Z score is 0.87.
Turning to `c1cnc2[nH]cc(Cc3noc([C@@H]4CCOC4)n3)c2c1`, the “% Inhibition” value was -6% and the Z score came out at 1.16.
The corresponding values for `O=S(=O)(NC[C@H]1CN(C2CC2)CCO1)c1c(F)cccc1Cl` are -13% and 1.51.
For `CON1CCC(C(=O)NC2c3ccccc3CCC2C)CC1` (stereo unspecified), the “% Inhibition” value was 0% and the Z score was -0.03.
Take `O=C1CN(C(=O)N[C@@H](Cc2ccccc2)C(=O)Nc2ccc3c(c2)OCCO3)c2ccccc2N1`: the “% Inhibition” value was -13% and the Z score worked out at 1.71.
Take `CC(O)C1CCN(C(=O)NCCc2ccc(Br)o2)C1` (stereo unspecified): the “% Inhibition” value was -14% and the Z score is given as 1.46.
On the same counts, the results for `CCN(C)C(=O)Oc1cccc([C@H](C)N(C)C)c1` [RIVASTIGMINE] are 7% and -0.82.
On the same counts, the results for `CCCc1cc(=O)n(-c2ccc(C(=O)N[C@H]3COC[C@@H]3OC)cc2)[nH]1` are -14% and 1.89.
The corresponding values for `CC(C)c1ccc(N2C[C@@]34C=C[C@@H](O3)C(C(=O)O)C4C2=O)cc1` (stereo partly specified) are -9% and 1.
For the molecule `COc1ccccc1OCc1n[nH]c([C@H]2CCCN(CC(N)=O)C2)n1`, the “% Inhibition” value is -1% and the Z score turned out to be 0.13.
As for `Cc1occc1C(=O)Nc1ccccc1-n1ccc(C(=O)O)n1`, the “% Inhibition” value came out at 0% and the Z score is given as 0.03.
Consider `COCCn1nnnc1[C@@H]1CN(CC(=O)Nc2cccc(C)c2C)CCO1`, for which the “% Inhibition” value is reported as -10% and the Z score came out at 1.73.
In the case of `O=C(Nc1ccn(Cc2cccnc2)n1)c1cccnc1O`, the “% Inhibition” value is on record as -7% and the Z score is listed as 1.02.
Consider `O=C(Nc1c(Cl)cccc1Cl)c1ccc(COc2ccc3c(c2)CCC3)o1`, for which the “% Inhibition” value was -15% and the Z score was found to be 1.99.
On the same counts, the results for `CO[C@H]1C[C@H]2CN(C(=O)COCc3ccccc3)CC(=O)N2C1` are -11% and 1.76.
As for `CCN(CC(=O)Nc1ccc2c(c1)OCCCO2)Cc1nc2cc(OC)c(OC)cc2c(=O)[nH]1`, the “% Inhibition” value stood at 3% and the Z score is on record as -0.47.
On the same counts, the results for `CC(CNS(C)(=O)=O)OC(=O)C1CC2CCC1C2` (stereo unspecified) are -13% and 2.39.
The corresponding values for `Cc1c(NC(=O)NCC2CCCCCCC2)c(=O)n(-c2ccccc2)n1C` are -11% and 1.12.
The corresponding values for `CC(C)(C)c1ccc(OCC2CCN(C(=O)c3c[nH]c4ncccc34)CC2)nn1` are -12% and 1.38.
Turning to `O=C(c1csc(Nc2cc(F)cc(F)c2)n1)N1CC[C@H](O)C1`, the “% Inhibition” value is 7% and the Z score was -0.83.
Turning to `Cc1noc2ncc(C(=O)N3CCC[C@@H]3CC(C)(C)C)cc12`, the “% Inhibition” value was found to be 38% and the Z score is reported as -5.17.
As to `COCc1nn(C)cc1C(=O)N1CCCN(Cc2ccc(Cl)cc2)CC1`, the “% Inhibition” value was -9% and the Z score was determined as 1.52.
On the same counts, the results for `O=C1NC2(CCN(Cc3ccncc3)CC2)Nc2cccc(Cl)c21` are -8% and 0.75.
The corresponding values for `Cc1nc2c(C(=O)O)snc2c(=O)n1Cc1ccc(Cl)cc1` are -7% and 0.89.
In the case of `CCc1cncc(C(=O)N2CCCc3ccnc(N(C)C)c32)c1`, the “% Inhibition” value was -6% and the Z score was found to be 0.66.
For the molecule `Clc1cccc(CNc2cnn(Cc3nnc4n3CCCC4)c2)c1`, the “% Inhibition” value is given as -5% and the Z score is on record as 0.69.
On to `COc1ccc(N2CCN(C(=O)[C@H]3CCC[C@H]3NC(=O)c3ccc(OC)nc3)CC2)cc1`, for which the “% Inhibition” value is recorded as -4% and the Z score stood at 0.49.
On the same counts, the results for `C[C@]1(c2ccc(Cl)c(Cl)c2)NC(=O)N(Cc2coc(-c3ccccc3)n2)C1=O` are -18% and 1.65.
Turning to `COc1cccc([C@H]2CC(O)=Nc3c2ncn3-c2cc(F)ccc2F)c1`, the “% Inhibition” value is recorded as 27% and the Z score is -3.01.
On the same counts, the results for `CCn1cc(C(=O)NC[C@H]2CCCN(CC(C)C)C2)nn1` are 5% and -0.57.
On the same counts, the results for `CCN(CC)c1nc(-c2nnc(-c3ccc(C)cc3)o2)nc2ccccc12` are -5% and 0.84.
As to `O=C(Nc1ccccc1Cl)c1ccc(-c2c(-c3ccc(F)cc3)ncn2C2CCCC2)o1`, the “% Inhibition” value was 4% and the Z score is recorded as -0.6.
Take `O=C(CNC(=O)c1ccc(C(F)(F)F)cc1)Nc1cccc(C(=O)NC2CC2)c1`: the “% Inhibition” value is listed as -1% and the Z score was found to be 0.14.
Regarding `C[C@H]1CN(c2ccnc(C(=O)NCc3ccccc3)c2)CC(C)(C)O1`, the “% Inhibition” value is -6% and the Z score came to 1.14.
With `COC[C@H]1CCCN(C(=O)Nc2c(C)cnn2Cc2ccccc2Cl)C1`, the “% Inhibition” value was 3% and the Z score is on record as -0.59.
The corresponding values for `COc1ccc2cc([C@@H]3CN(CCc4nnn[nH]4)CCO3)ccc2c1` are -10% and 0.97.
On to `Cc1nccn1Cc1nc(C2CCOCC2)nn1C[C@H]1COCCO1`, for which the “% Inhibition” value is -6% and the Z score amounted to 1.01.
For the molecule `O=C(NCCCc1ncc[nH]1)[C@@H]1[C@H]2[C@@H]3CC[C@@H](C3)[C@@H]12`, the “% Inhibition” value is given as 0% and the Z score amounted to 0.06.
On the same counts, the results for `COCCN(Cc1cccs1)C(=O)c1cc(C2CC2)nc2c1c(C)nn2C(C)(C)C` are 2% and -0.17.
The corresponding values for `Cn1nc(-c2nnc(-c3ccccc3)o2)c2c1CCN(S(=O)(=O)c1ccc(F)cc1F)C2` are -30% and 2.61.
The corresponding values for `CC(C)COC[C@@H](O)Cn1nnc(-c2ccsc2)n1` are -5% and 0.7.
As to `COc1ccccc1-c1nc(S(=O)(=O)c2ccc3c(c2)OCCO3)c(N2CCCCC2)o1`, the “% Inhibition” value is given as 14% and the Z score is listed as -1.86.
On to `CC(C)Oc1ccc(C(=O)NCc2cc(-c3cccs3)nn2C)cc1`, for which the “% Inhibition” value is recorded as -1% and the Z score was found to be 0.12.
The corresponding values for `Cc1ccc(C)c(OCC(=O)NC2(C(=O)O)CCC2)c1` are -10% and 1.34.
